Results are given in words; binding and its absence hold for the method and conditions named. Binding seen in cells or lysates may run through a third protein. Some entries that bind do so weakly or less than the wild type. Where a sequence is shown, tags or fusion partners need not be part of it.

Assay [1] has as its target T1, FRQ Δ435–481, V5H6-tagged (Neurospora crassa) (UniProt P19970).
T1 sequence: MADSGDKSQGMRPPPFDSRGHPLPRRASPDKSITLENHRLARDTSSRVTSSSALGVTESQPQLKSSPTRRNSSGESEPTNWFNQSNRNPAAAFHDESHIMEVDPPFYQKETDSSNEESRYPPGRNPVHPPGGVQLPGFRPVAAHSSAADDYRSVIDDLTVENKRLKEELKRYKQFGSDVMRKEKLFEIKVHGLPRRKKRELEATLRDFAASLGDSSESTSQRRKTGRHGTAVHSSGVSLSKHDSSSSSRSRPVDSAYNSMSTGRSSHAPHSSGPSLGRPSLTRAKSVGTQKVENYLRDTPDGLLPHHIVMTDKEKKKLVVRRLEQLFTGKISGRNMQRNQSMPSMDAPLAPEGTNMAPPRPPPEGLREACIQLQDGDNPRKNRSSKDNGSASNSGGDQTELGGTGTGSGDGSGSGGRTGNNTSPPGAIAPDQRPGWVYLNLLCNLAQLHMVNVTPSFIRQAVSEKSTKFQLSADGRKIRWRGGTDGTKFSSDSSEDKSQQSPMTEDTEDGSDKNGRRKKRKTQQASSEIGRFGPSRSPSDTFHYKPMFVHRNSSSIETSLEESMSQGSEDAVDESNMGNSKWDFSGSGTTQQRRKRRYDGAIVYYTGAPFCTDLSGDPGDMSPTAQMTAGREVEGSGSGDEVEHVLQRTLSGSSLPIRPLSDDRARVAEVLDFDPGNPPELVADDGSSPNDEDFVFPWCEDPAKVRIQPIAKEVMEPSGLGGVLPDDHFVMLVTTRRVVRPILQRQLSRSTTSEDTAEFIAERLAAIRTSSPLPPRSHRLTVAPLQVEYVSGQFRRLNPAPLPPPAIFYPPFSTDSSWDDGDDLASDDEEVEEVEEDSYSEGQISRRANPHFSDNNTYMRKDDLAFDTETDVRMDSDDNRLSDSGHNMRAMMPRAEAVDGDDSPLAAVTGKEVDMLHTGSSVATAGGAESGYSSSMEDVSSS
The assay is described as follows: co-IP; V5H6-tagged FRQ (wild type or mutant) pulled down with V5 agarose from Neurospora lysate (cultures in the light, 25 °C); 50 mM Hepes pH 7.4, 137 mM NaCl, 10% glycerol, 0.4% NP-40; 4 °C, 2 h; Western blot with FRQ, FRH, WC-1 and WC-2 antibodies. For orientation: A western blot detects proteins with antibodies after separation by electrophoresis.

The target of assay [2] is T2, FRQ Δ107–148, V5H6-tagged (Neurospora crassa) (UniProt P19970).
T2 sequence: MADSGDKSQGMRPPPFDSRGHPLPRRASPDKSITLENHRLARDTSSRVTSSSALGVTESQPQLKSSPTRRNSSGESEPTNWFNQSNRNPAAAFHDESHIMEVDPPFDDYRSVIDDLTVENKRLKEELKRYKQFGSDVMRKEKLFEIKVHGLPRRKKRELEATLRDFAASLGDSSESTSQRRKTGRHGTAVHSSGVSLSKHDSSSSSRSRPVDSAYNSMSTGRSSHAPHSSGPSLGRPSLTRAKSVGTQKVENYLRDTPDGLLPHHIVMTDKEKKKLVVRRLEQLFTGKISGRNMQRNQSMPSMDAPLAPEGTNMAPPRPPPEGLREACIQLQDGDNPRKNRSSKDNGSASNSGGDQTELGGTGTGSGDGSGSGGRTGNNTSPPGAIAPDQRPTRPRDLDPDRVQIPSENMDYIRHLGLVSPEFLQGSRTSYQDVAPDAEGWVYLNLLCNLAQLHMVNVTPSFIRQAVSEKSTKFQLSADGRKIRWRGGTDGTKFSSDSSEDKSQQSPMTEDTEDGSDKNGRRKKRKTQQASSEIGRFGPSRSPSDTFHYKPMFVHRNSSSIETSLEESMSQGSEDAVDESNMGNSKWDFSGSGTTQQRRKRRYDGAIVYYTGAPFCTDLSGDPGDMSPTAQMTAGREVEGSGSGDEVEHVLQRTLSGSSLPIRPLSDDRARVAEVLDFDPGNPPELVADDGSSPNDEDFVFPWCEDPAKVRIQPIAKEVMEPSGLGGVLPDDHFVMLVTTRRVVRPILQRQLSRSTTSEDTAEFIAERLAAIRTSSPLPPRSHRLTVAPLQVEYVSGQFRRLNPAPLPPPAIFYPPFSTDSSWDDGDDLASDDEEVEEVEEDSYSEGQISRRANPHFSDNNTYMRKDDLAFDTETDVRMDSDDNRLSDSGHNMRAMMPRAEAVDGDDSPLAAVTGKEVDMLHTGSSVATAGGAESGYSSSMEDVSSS
The description is as above.

B1: White Collar-2 (WC-2) (protein, UniProt P78714 1-530)
chain: MSHGQPPPGSSMYGFGAMGMGSGMGSGMGSGMGTGMGTGMGTGMSASQMTSDPQDMMSLLDTSVFPGFDGMSMSLDVGDSMSNPFTPVSVPPPLPAGNAGPSHVGVCGGHGAPDQLFSPDDLIATSMSSAGPMIATPTTTTSGPSGGPSSGGGSTLTEFTKRRNWPAKVVEELQDWEHILDANGRIKHVSPSVEPLTGYKPPEIIDLFLRDLIHPDDVGVFTAELNEAIATGSQLRLFYRFRKKDGNWTIFETVGHAHIAAAKFAPNPQNQSPFCQAVFMMARPYPTKNAGLLDSFLEHKIENERLKRRIAELRREEQEEQEESHRTWRMSQEGRSDVTPSDDTATQMGMTPFYIPMNAQADVMMPPPSQPASSLNIALTRENLEGIAGSRPDSIREKMLRYEGNHADTIEMLTGLKYQEGERSHGITTGNASPTLIKGDAGIAIPLDRDPRTGEKKKKIKVAEEYVCTDCGTLDSPEWRKGPSGPKTLCNACGLRWAKKEKKKNANNNNNGGGIGGHNDIHTPMGDHMG
With B1, the binding result in assay [1] is given as “binds”; in assay [2] it was “binds weakly”.

For the origin of these results see PMC10320511.
